Source: article PMC5540273 (PLoS ONE, 2017)
For some assays here: Most of the strong results are listed elsewhere, so they are rarer here than in the full data. The entries are a selection whose mix differs from that of the whole data set.

Assays:
Conditions in all cases: concentration: 1 μM,replicates: in singlicate; n = 1
SIK = tested on: SIK
SLK = tested on: SLK
SNARK = tested on: T1, SNARK
T1 construct: gene NUAK2

SNRK = tested on: SNRK
SRC = tested on: SRC
SRMS = tested on: SRMS
SRPK1 = tested on: SRPK1
SRPK2 = tested on: SRPK2
SRPK3 = tested on: SRPK3
STK16 = tested on: STK16
STK33 = tested on: STK33
STK35 = tested on: STK35
STK36 = tested on: STK36
STK39 = tested on: STK39
SYK = tested on: SYK
SgK110 = tested on: SgK110
TAK1 = tested on: T2, TAK1
T2 construct: gene MAP3K7

TAOK1 = tested on: TAOK1
TAOK2 = tested on: TAOK2
TAOK3 = tested on: TAOK3
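Further: KINOMEscan kinase panel screen.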

Row | SMILES | %Inh (SIK) [%] | %Inh (SLK) [%] | %Inh (SNARK) [%] | %Inh (SNRK) [%] | %Inh (SRC) [%] | %Inh (SRMS) [%] | %Inh (SRPK1) [%] | %Inh (SRPK2) [%] | %Inh (SRPK3) [%] | %Inh (STK16) [%] | %Inh (STK33) [%] | %Inh (STK35) [%] | %Inh (STK36) [%] | %Inh (STK39) [%] | %Inh (SYK) [%] | %Inh (SgK110) [%] | %Inh (TAK1) [%] | %Inh (TAOK1) [%] | %Inh (TAOK2) [%] | %Inh (TAOK3) [%]
1 | O=C1NC(=O)C(c2ccc(Cl)cc2)=C1Nc1cccc(O)c1 [SB-333613] | 0 | 21 | 25 | 4 | 13 | 10 | 3 | 0 | 15 | 3 | 23 | 1 | 0 | 35 | 9 | 0 | 26 | 26 | 3 | 24
2 | O=C1NC(=O)C(c2ccc(Cl)cc2)=C1Nc1ccccc1 [SB-317661] | 0 | 0 | 6 | 0 | 0 | 31 | 0 | 0 | 0 | 0 | 16 | 0 | 0 | 20 | 0 | 0 | 0 | 0 | 50 | 3
3 | O=C1NC(=O)C(c2ccc(Cl)cc2)=C1Nc1cccc(C(=O)O)c1 [SB-360737] | 0 | 11 | 0 | 0 | 0 | 0 | 12 | 0 | 0 | 11 | 0 | 0 | 0 | 24 | 5 | 0 | 0 | 0 | 8 | 0
4 | O=C1NC(=O)C(c2ccccc2Cl)=C1Nc1ccccc1 [SB-376715] | 9 | 51 | 13 | 0 | 1 | 4 | 17 | 14 | 0 | 0 | 0 | 0 | 7 | 0 | 10 | 0 | 0 | 1 | 3 | 4
5 | O=C1NC(=O)C(c2ccccc2)=C1Nc1ccc(Cl)c(C(=O)O)c1 [SB-390532] | 0 | 0 | 0 | 0 | 0 | 0 | 23 | 24 | 0 | 9 | 0 | 0 | 0 | 7 | 0 | 10 | 0 | 0 | 0 | 0
6 | O=C(O)c1ccc(-c2nc(-c3ccc(F)cc3)c(-c3ccncc3)[nH]2)cc1 [SB-202620] | 20 | 12 | 0 | 2 | 18 | 33 | 14 | 0 | 21 | 0 | 12 | 6 | 48 | 29 | 18 | 43 | 9 | 0 | 55 | 2
7 | O=C1NC(=O)c2c1c(-c1ccccc1)cc1[nH]c3ccc(O)cc3c21 | 34 | 96.6 | 90.1 | 15 | 0 | 30 | 0 | 13 | 68 | 0 | 46 | 49 | 1 | 27 | 71 | 0 | 51 | 0 | 0 | 6
8 | COc1ccc(C2=C(Nc3cccc(Cl)c3)C(=O)NC2=O)cc1 [SB-326892] | 11 | 84 | 8 | 0 | 0 | 0 | 21 | 0 | 21 | 0 | 0 | 0 | 0 | 0 | 0 | 0 | 0 | 0 | 12 | 0
9 | O=C1NC(=O)C(c2ccccc2)=C1Nc1cc(Cl)c(O)c(Cl)c1 [SB-390530] | 2 | 30 | 46 | 2 | 0 | 0 | 12 | 2 | 26 | 20 | 0 | 0 | 0 | 60 | 0 | 0 | 32 | 64 | 0 | 0
10 | O=C1NC(=O)C(c2ccc(Cl)cc2)=C1Nc1ccc(O)c(Cl)c1 [SB-405367] | 24 | 55 | 25 | 6 | 9 | 18 | 28 | 0 | 0 | 2 | 0 | 0 | 0 | 13 | 3 | 35 | 18 | 0 | 0 | 0
11 | CSc1ccc(NC2=C(c3cccc(Cl)c3)C(=O)NC2=O)cc1 [SB-341528] | 0 | 31 | 8 | 5 | 4 | 5 | 4 | 0 | 0 | 0 | 0 | 0 | 0 | 0 | 0 | 0 | 52 | 0 | 0 | 3
12 | O=C1NC(=O)C(c2ccccc2Cl)=C1Nc1cccc(C(=O)O)c1 [SB-390526] | 0 | 40 | 9 | 0 | 0 | 2 | 26 | 28 | 24 | 0 | 0 | 0 | 3 | 6 | 9 | 0 | 4 | 13 | 5 | 0
13 | Cc1ccc(C)c(Oc2nccc(-c3c(-c4ccc(F)cc4)ncn3C3CCNCC3)n2)c1.O=C(O)C(F)(F)F.O=C(O)C(F)(F)F.O=C(O)C(F)(F)F [SB-284852] | 34 | 17 | 0 | 0 | 4 | 0 | 0 | 22 | 10 | 0 | 1 | 0 | 11 | 0 | 15 | 7 | 0 | 0 | 27 | 0
14 | Cc1cc(C)cc(Oc2nccc(-c3c(-c4ccc(F)cc4)ncn3C3CCNCC3)n2)c1.O=C(O)C(F)(F)F.O=C(O)C(F)(F)F.O=C(O)C(F)(F)F [SB-284851] | 19 | 17 | 0 | 0 | 6 | 5 | 3 | 76 | 25 | 16 | 0 | 0 | 0 | 0 | 27 | 0 | 0 | 0 | 38 | 0
15 | CS(=O)(=O)c1ccccc1-c1nc(-c2ccc(F)cc2)c(-c2ccncc2)[nH]1 [SB-213663] | 4 | 0 | 0 | 7 | 13 | 0 | 0 | 32 | 9 | 8 | 14 | 0 | 43 | 34 | 7 | 30 | 43 | 0 | 0 | 0
16 | COc1cccc(C2=C(Nc3ccc(SC)cc3)C(=O)NC2=O)c1 [SB-331032] | 0 | 78 | 37 | 0 | 0 | 18 | 10 | 0 | 0 | 0 | 0 | 0 | 20 | 14 | 26 | 15 | 20 | 28 | 19 | 19
